This note sets out measurements from ChEMBL document CHEMBL4888484, “Replenishing the malaria drug discovery pipeline: Screening and hit evaluation of the MMV Hit Generation Library 1 (HGL1) against asexual blood stage Plasmodium falciparum ,using a nano luciferase reporter read-out” (2022).

About 540 (0.36%) of roughly 150,000 compounds showed an effect of 50% or more. The list shows a part of the results.

In the test the test system is Plasmodium falciparum. As to the kind of experiment: Primary screen in NF54 nanoGlo assay, in single point, at 2uM, 72h; a lower Z score goes with more inhibition. In kind it is functional, Erythrocyte. The note with it: timepoint 72 hour.
Broadly, the % Inhibition is the drop in the measured response relative to a control, in per cent. On to `Cc1cccc(S(=O)(=O)Nc2nnc(C3CC3)o2)c1Br`, for which the “% Inhibition” value is 5% and the Z score was -0.67.

With `CNC[C@H]1CCCN1C(=O)COc1ccc(C)cc1C`, the “% Inhibition” value is recorded as 1% and the Z score is -0.14.

`OCC#Cc1ccc(CN[C@H]2CCCN(c3ncccn3)C2)s1`: the “% Inhibition” value is on record as -16% and the Z score amounted to 1.46.

Take `Cc1c(C(=O)Nc2nc3c(s2)CCCC3)nnn1C1CCNCC1`: the “% Inhibition” value stood at 10% and the Z score is listed as -1.

Take `Cn1c(=O)c2c(nc(N3CCCCC3)n2CCNC2=NCCCCC2)n(C)c1=O`: the “% Inhibition” value is recorded as -7% and the Z score was 0.86.

Consider `CC1CN(CC(O)Cn2cccn2)CC(C)[S+]1[O-]` (stereo not drawn), for which the “% Inhibition” value was -5% and the Z score was determined as 0.53.

Regarding `O=C(c1cccc(F)c1)N1CCCCC[C@@H]1CN1CCCC1`, the “% Inhibition” value is listed as -1% and the Z score came out at 0.17.

Turning to `Cc1cccc(Nc2ccc(NCCNS(=O)(=O)c3ccc4ccccc4c3)nn2)n1`, the “% Inhibition” value amounted to 4% and the Z score is on record as -0.61.

Turning to `O=C1CCC(=O)N1C1CCC(NC2CC(c3ccc(F)cc3)C2)CC1` (stereo not drawn), the “% Inhibition” value worked out at 4% and the Z score is given as -0.46.

For the compound `COC(=O)N1CCCC(C(=O)NC2C3CCC(C3)C2C(=O)OCc2ccccc2)C1` (stereo not drawn), the “% Inhibition” value came to 1% and the Z score is on record as -0.17.

Turning to `CCC1(CNC(=O)C[C@H]2CCCO2)CCCC1`, the “% Inhibition” value was -2% and the Z score is 0.36.

Regarding `CCN1CCC(NCc2cccs2)CC1`, the “% Inhibition” value turned out to be 21% and the Z score was -2.78.

For the compound `Nc1cc(N2CCC[C@H](c3ccn[nH]3)C2)nc(N2CCCC2)n1`, the “% Inhibition” value is recorded as -9% and the Z score turned out to be 0.97.

Consider `Cc1cccc2nc(CN(C)C(=O)c3cn[nH]c3)[nH]c12`, for which the “% Inhibition” value was -4% and the Z score was 0.44.

For the compound `CCCNC(=O)CNC(C)(C)c1ccccc1`, the “% Inhibition” value is recorded as -4% and the Z score was determined as 0.6.

On to `Cc1cccc(N2CCN(C(=O)Cn3ccc4ccc(N5CCOCC5)nc43)CC2)c1C`, for which the “% Inhibition” value is -2% and the Z score turned out to be 0.23.

As to `O=C(NCCc1cscn1)N(Cc1c(F)cccc1F)C1CC1`, the “% Inhibition” value is recorded as -4% and the Z score worked out at 0.58.

Regarding `CN(C)c1nc2cc(C(=O)NC[C@H](N3CCOCC3)C(F)(F)F)ccc2o1`, the “% Inhibition” value is -28% and the Z score was determined as 3.33.

Turning to `CCc1nc2c(N3CCC[C@H](C(=O)c4ccccc4)C3)ncnc2o1`, the “% Inhibition” value is on record as -6% and the Z score came to 1.1.

Turning to `CCCn1nc(C(=O)O)c2c1CC[C@H](N(C)Cc1nccs1)C2`, the “% Inhibition” value is recorded as -1% and the Z score was found to be 0.27.

For `Cc1c(Cl)cccc1-n1nc(C2CC2)nc1-c1cncnc1`, the “% Inhibition” value was -7% and the Z score is on record as 0.87.

Turning to `O=C(Nc1ccc(-n2nc(OCc3ccc(F)cc3)nc2-c2ccc(C(F)(F)F)cc2)cc1)c1ccc2c(c1)OCO2`, the “% Inhibition” value is recorded as -12% and the Z score amounted to 1.25.

For the compound `CCc1nc(CCNC(=O)Nc2cccc(CN3CCCC[C@@H]3C)c2)no1`, the “% Inhibition” value is -8% and the Z score is 0.68.

For the compound `CCn1nc(CO)c2c1CCN(C(=O)Cc1noc3ccccc13)C2`, the “% Inhibition” value was -8% and the Z score is given as 1.59.
